In all, about 45,000 compounds went through this assay and about 200 (0.44%) were called active. Inconclusive results (about 7%) are left out. Calls follow the shape of the dose curve; as a rule, active = well fitted activation curve with a large enough effect; inconclusive = small, poorly fitted or top-dose-only effect; inactive = no such curve, though single readings can be large or run the other way. The list shows a part of the results.
Assay: qHTS of TDP-43 Inhibitors: NCGC Sytravon Library Screen; also: nearly all actives have a fitted effect of over 55% in size; as to growth rescue (activation): 0% is about no effect
Details: yeast TDP-43 toxicity rescue, BacTiter-Glo growth, 24 h; series mostly up to 46.1 µM; growth rescue (activation): at the top concentration
Method in brief: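 TDP-43-expressing yeast, pregrown in raffinose, seeded at OD600 0.02 in galactose medium with compound for 24 hr at 30 deg C. Growth read by BacTiter-Glo luminescence, so rescue of toxicity appears as activation.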
Potency is read from the fitted curve at half-maximal effect.

SMILES	growth rescue (activation)	Potency
Cc1ccc(S(=O)(=O)NCc2cn3c(C)csc3n2)cc1	inactive: 7.69%	
CN(C)CCNC(=O)C1Cc2c(-c3ccccc3Oc3ccccc3)ccnc2O1 (stereo not given)	inactive: -7.21%	
Cc1oc2ccc(OC(=O)COc3c(F)c(F)c(F)c(F)c3F)cc2c1C(=O)OC(C)C	inactive: -4.24%	
CCC(=O)NC(=S)Nc1cc(C(=O)O)ccc1OC	inactive: -2.39%	
COc1ccc(CNC(=O)CN(Cc2ccc(F)cc2)C(=O)CCC(=O)Nc2nccs2)cc1	inactive: 9.21%	
Cc1cc(C(=O)N(NC(=O)C(C)C)c2ccccc2)cs1	inactive: -9.61%	
O=C(Nc1ccccn1)c1cc(-c2cccnc2)nc2ccc(Br)cc12	inactive: -23.9%	
O=C(NCCCn1ccnc1)/C(=C/c1ccco1)NC(=O)c1ccco1	inactive: -8.78%	
O=C(NCCc1ccc(Cl)cc1)c1cc2ccccn2n1	inactive: 21.1%	
COc1ccc(Nc2nc3cc(-c4ccccc4C)sc3c(=O)n2C)cc1OC		active: 20 µM
Cc1c(CCC(=O)O)c(=O)oc2c(C)c(OCc3ccccc3Cl)ccc12	inactive: 2.21%	
COc1ccc(C(=O)CSc2[nH]c(=O)cc(C(F)(F)F)c2C#N)cc1	inactive: -9.69%	
Cc1cc(C)nc(NC(=O)c2cc(Br)ccc2Cl)n1	inactive: 3.69%	
COc1cc(CCC(=O)N2CCN(c3ccccc3Cl)CC2)cc(OC)c1OC	inactive: 21.1%	
COC(=O)c1cc(Cl)cc(Cl)c1OS(=O)(=O)N(C)C	inactive: 25%	
CC(C)c1csc(CN2CCC(N3CCC(C(=O)N4CCOCC4)CC3)CC2)n1	inactive: -2.35%	
Cc1ccc(C(=O)Nc2ccc(N3CCN(C)CC3)cc2)cc1	inactive: 2.23%	
Cc1cc(C)c(NC(=O)c2cc(C(=O)O)ccc2C(=O)O)c([N+](=O)[O-])c1	inactive: -2.66%	
CCc1ccc(N(C(=O)c2snc(C(N)=O)c2N)C(C(=O)NCC2CCCO2)c2ccco2)cc1 (stereo not given)	inactive: 2.32%	
Cc1cc(/C=C(\C#N)C(=O)NCc2ccco2)c(C)n1-c1cccnc1	inactive: 12%	
CSc1ccc(C#N)cc1NC(=O)c1ccccc1	inactive: 10.5%	
Cc1ccccc1C(=O)NC1CCN(CC(=O)NC2CCCCC2)CC1	inactive: -20.9%	
COC(=O)c1cc(NC(=O)CC2Oc3ccccc3NC2=O)cc(C(=O)OC)c1 (stereo not given)	inactive: 6.53%	
CCOC(=O)COc1cc([N+](=O)[O-])cc2cccnc12	inactive: 9.09%	
Cn1ccnc1C(=O)c1ccc(Cl)c(S(=O)(=O)N2CCOCC2)c1	inactive: -17.7%	
CCN(CC)C(=O)Cn1nc(-c2ccc(Cl)cc2)c2ccccc2c1=O	inactive: -5.48%	
CC(C)[C@H](NC(=O)NCCc1ccc(F)cc1)C(=O)O	inactive: 7.27%	
O=[N+]([O-])c1ccc(C=Nc2cccc3ccccc23)s1	inactive: -94%	
CCOC(=O)C1(CCc2ccccc2)CCN(C(=O)CCc2cnccn2)CC1	inactive: 19.2%	
O=C1N=C(N2CCCC2)CN1c1ccccc1	inactive: -5.45%	

Source: PubChem BioAssay AID1347073 (National Center for Advancing Translational Sciences (NCATS), 2019)
